We go through eight compounds from the supplement of paper PMC4604168 (melanoma cell lines).

What all share (assay): cell count relative to DMSO control; melanoma cells; higher = more viable cells
Common to all, as to details: library dose: low library concentration; 72 h

In test [1] the test system is WM115.
For test [2], the system named is WM1716.
Test [3] relates to WM1745.
In test [4] the test system is WM3526.
Test [5] deals with WM3619.
Test [6] relates to WM451Lu.

SMILES strings stand for the structures. This is one part of the list. Many values rest on one well or one pass, so single values are uncertain.
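Note: cell number obtained by counting DAPI-stained nuclei in high-throughput microscope images with image analysis software, screen run in 1,536-well plates.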

In the case of `O=C(/C=C/c1cccnc1)NCCCCC1CCN(C(=O)c2ccccc2)CC1` + Cc1cn(-c2cc(NC(=O)c3ccc(C)c(Nc4nccc(-c5cccnc5)n4)c3)cc(C(F)(F)F)c2)cn1 [nilotinib] (first compound 0.01 µM, partner dose 0.2 µM), the cell count in test [1] is 99.6%; in test [2] it was 93.9%; in test [3], 91.1%; in test [4], 99.1%; in test [5], 83.1%; in test [6], 112%.

For the compound `Cc1ccc(Nc2nccc(N(C)c3ccc4c(C)n(C)nc4c3)n2)cc1S(N)(=O)=O` [Pazopanib] + Cn1c(=O)n(-c2ccc(C(C)(C)C#N)cc2)c2c3cc(-c4cnc5ccccc5c4)ccc3ncc21 [NVP-BEZ235] (first compound 0.4 µM, partner dose 0.004 µM), the cell count in test [1] amounted to 83.8%; in test [2], 77.9%; in test [3], 95.7%; in test [4], 86.1%; in test [5] it was 80.7%; in test [6], 83.5%.

In the case of `CC1(C)CCC(c2ccc(Cl)cc2)=C(CN2CCN(c3ccc(C(=O)NS(=O)(=O)c4ccc(N[C@H](CCN5CCOCC5)CSc5ccccc5)c(S(=O)(=O)C(F)(F)F)c4)cc3)CC2)C1` + CC(=O)O[C@@]12CO[C@@H]1C[C@H](O)[C@@]1(C)C(=O)[C@H](O)C3=C(C)[C@@H](OC(=O)[C@H](O)[C@@H](NC(=O)OC(C)(C)C)c4ccccc4)C[C@@](O)([C@@H](OC(=O)c4ccccc4)[C@H]21)C3(C)C [Docetaxel] (first compound 0.4 µM, partner dose 0.0001 µM), the cell count in test [1] was determined as 47.9%; in test [2], 35.1%; in test [3], 8.31%; in test [4], 20.2%; in test [5], 34.2%; in test [6] it was 48.4%.

On to `Cc1ccc(Nc2nccc(N(C)c3ccc4c(C)n(C)nc4c3)n2)cc1S(N)(=O)=O` [Pazopanib] + C[C@@H](Oc1cc(-c2cnn(C3CCNCC3)c2)cnc1N)c1c(Cl)ccc(F)c1Cl [Crizotinib] (first compound 0.4 µM, partner dose 0.2 µM), for which the cell count turned out to be 96.9% in test [1]; 104% in test [2]; 84.5% in test [3]; 80.5% in test [4]; 88.2% in test [5]; 89.9% in test [6].

Turning to `O=C(/C=C/c1cccnc1)NCCCCC1CCN(C(=O)c2ccccc2)CC1` + Cc1cc([N+](=O)[O-])ccc1NS(=O)(=O)c1cc(Cl)ccc1Cl [FH535] (first compound 0.01 µM, partner dose 1 µM), the cell count amounted to 91.7% in test [1]; 78.4% in test [2]; 96.8% in test [3]; 104% in test [4]; 106% in test [5]; 93.3% in test [6].

`O=C(/C=C/c1cccnc1)NCCCCC1CCN(C(=O)c2ccccc2)CC1` + Cc1ccc(NC(=O)c2cccc(N(C)C)c2)cc1NC(=O)c1ccc(O)cc1 [ZM336372] (first compound 0.01 µM, partner dose 2 µM): the cell count was determined as 88.5% in test [1]; 119% in test [2]; 86.1% in test [3]; 92.3% in test [4]; 71.8% in test [5]; 123% in test [6].

As for `Cc1ccc(Nc2nccc(N(C)c3ccc4c(C)n(C)nc4c3)n2)cc1S(N)(=O)=O` [Pazopanib] + NC1(c2ccc(-c3nc4ccn5c(=O)[nH]nc5c4cc3-c3ccccc3)cc2)CCC1 [MK2206] (first compound 0.4 µM, partner dose 0.4 µM), the cell count was 90.5% in test [1]; 99.8% in test [2]; 94.8% in test [3]; 83.6% in test [4]; 110% in test [5]; 97.5% in test [6].

Regarding `CC1(C)CCC(c2ccc(Cl)cc2)=C(CN2CCN(c3ccc(C(=O)NS(=O)(=O)c4ccc(N[C@H](CCN5CCOCC5)CSc5ccccc5)c(S(=O)(=O)C(F)(F)F)c4)cc3)CC2)C1` + Oc1nc(-c2ccc(C(F)(F)F)cc2)nc2c1CSCC2 [XAV939] (first compound 0.4 µM, partner dose 2 µM), the cell count in test [1] was 82.1%; in test [2], 38.3%; in test [3], 8.97%; in test [4], 91%; in test [5], 71.4%; in test [6] it was 87.6%.
